In doi:10.1101/2025.09.02.673761 (bioRxiv, 2025):

Legend:
[1] = molecular target: GFP-tagged Aurora B kinase, subunit of CPC-GFP (human, UniProt Q96GD4 1-344); experiment: SEC + other: mass photometry
[2] = molecular target: T1, Borealin, subunit of CPC-GFP (human, UniProt Q53HL2 1-280); experiment: SEC + other: mass photometry
T1 sequence: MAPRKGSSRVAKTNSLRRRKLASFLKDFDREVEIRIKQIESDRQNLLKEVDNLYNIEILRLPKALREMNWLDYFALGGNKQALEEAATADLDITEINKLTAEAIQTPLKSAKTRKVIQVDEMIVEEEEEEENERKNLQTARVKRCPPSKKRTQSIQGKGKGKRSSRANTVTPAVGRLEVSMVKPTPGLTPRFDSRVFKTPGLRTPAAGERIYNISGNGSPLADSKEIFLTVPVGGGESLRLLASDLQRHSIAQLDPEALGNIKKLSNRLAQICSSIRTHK

UniProt Q96GD4, sequence (Q96GD4 whole entry): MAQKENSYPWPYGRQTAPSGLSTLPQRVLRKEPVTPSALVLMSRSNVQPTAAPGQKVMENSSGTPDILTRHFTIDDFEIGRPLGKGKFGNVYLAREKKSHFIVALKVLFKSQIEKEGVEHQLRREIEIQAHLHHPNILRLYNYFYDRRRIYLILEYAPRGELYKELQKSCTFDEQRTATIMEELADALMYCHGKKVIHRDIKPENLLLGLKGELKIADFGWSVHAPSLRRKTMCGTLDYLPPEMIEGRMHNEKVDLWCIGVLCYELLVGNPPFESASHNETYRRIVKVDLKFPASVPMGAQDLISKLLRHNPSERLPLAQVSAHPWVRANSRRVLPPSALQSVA

B1: INCENP (Inner Centromere Protein), subunit of CPC-GFP (natural protein)
chain: MGTTAPGPIHLLELCDQKLMEFLCNMDNKDLVWLEEIQEEAERMFTREFSKEPELMPKTPSQKNRRKKRRISYVQDENRDPIRRRLSRRKSRSSQLSSRRLRSKDSVEKLATVVGENGSVLRRVTRAAAAAAAATMALAAPSSPTPESPTMLTKKPEDNHTQCQLVPVVEIGISERQNAEQHVTQLMSTEPLPRTLSPTPASATAPTSQGIPTSDEESTPKKSKARILESITVSSLMATPQDPKGQGVGTGRSASKLRIAQVSPGPRDSPAFPDSPWRERVLAPILPDNFSTPTGSRTDSQSVRHSPIAPSSPSPQVLAQKYSLVAKQESVVRRASRRLAKKTAEEPAASGRIICHSYLERLLNVEVPQKVGSEQKEPPEEAEPVAAAEPEVPENNGNNSWPHNDTEIANSTPNPKPAASSPETPSAGQQEAKTDQADGPREPPQSARRKRSYKQAVSELDEEQHLEDEELQPPRSKTPSSPCPASKVVRPLRTFLHTVQRNQMLMTPTSAPRSVMKSFIKRNTPLRMDPKCSFVEKERQRLENLRRKEEAEQLRRQKVEEDKRRRLEEVKLKREERLRKVLQARERVEQMKEEKKKQIEQKFAQIDEKTEKAKEERLAEEKAKKKAAAKKMEEVEARRKQEEEARRLRWLQQEEEERRHQELLQKKKEEEQERLRKAAEAKRLAEQREQERREQERREQERREQERREQERREQERQLAEQERRREQERLQAERELQEREKALRLQKEQLQRELEEKKKKEEQQRLAERQLQEEQEKKAKEAAGASKALNVTVDVQSPACTSYQMTPQGHRAPPKINPDNYGMDLNSDDSTDDEAHPRKPIPTWARGTPLSQAIIHQYYHPPNLLELFGTILPLDLEDIFKKSKPRYHKRTSSAVWNSPPLQGARVPSSLAYSLKKH
stoichiometry N [1]: 1
stoichiometry N [2]: 1
